Where a name gives a salt, the structure may show the parent alone.
Columns and labels:
SARS-CoV-2 S protein [1] = target: T1, SARS-CoV-2 S protein (Severe acute respiratory syndrome coronavirus 2, UniProt P0DTC2); format: biochemical; conditions: recombinant S and CTSL, 37 °C 1 h, silver staining
SARS-CoV-2 S protein [2] = target: T1, SARS-CoV-2 S protein; test: biochemical; format: binding

| SMILES | effect on cleavage of S protein by CTSL protein (SARS-CoV-2 S protein [1]) | Kd (SARS-CoV-2 S protein [2]) [µM] |
| --- | --- | --- |
| CC(=O)c1ccc2c(c1)N(CCCN(C)C)c1ccccc1S2 [Acepromazine maleate, acepromazine maleate] | prevented the cleavage of S protein by CTSL protein | 53.1 |
| CC(CN(C)C)CN1c2ccccc2Sc2ccccc21 (centres unmarked) [Alimemazine hemitartrate, alimemazine hemitartrate] | prevented the cleavage of S protein by CTSL protein | 435 |
| CCCCCCCCCC(=O)OCCN1CCN(CCCN2c3ccccc3Sc3ccc(C(F)(F)F)cc32)CC1 [Fluphenazine decanoate, fluphenazine decanoate] | prevented the cleavage of S protein by CTSL protein | 60.2 |
| OCCN1CCN(CCCN2c3ccccc3Sc3ccc(Cl)cc32)CC1 [Perphenazine, perphenazine] | prevented the cleavage of S protein by CTSL protein | 979 |

Reference: paper PMC10458444 (Viruses, 2023)
